In brackets after ≈: the same amount, converted by molar mass.
Test system: Caenorhabditis elegans
Assay: whole plant or invertebrate
Details: 24 h, read-out: IC50, Antinematodal activity on C. elegans
Experimental: The nematode Caenorhabditis elegans, which was kindly supplied by Dr. Yuanmei Zuo at the College of Resources and Environmental Sciences, China Agricultural University, was inoculated on the nematode growth medium (NGM) that was cultured previously with Escherichia coli OP50according to methods of Steiemagle. The NGM plate was full of the worms after 4 to 5 days at 16 °C in darkness. In order to determine the IC50 values of the compounds, 5% acetone-water solutions of each sample at 1, 5, 10, 25, 50, 100, and 200 μg/mL were assayed for antinematodal activity. The test nematode dilution (90 μL containing 40–50 nematodes) was added into each well of the sterile 96-well microplate and then, 10 μL of sample stock solution was added into each well and mixed thoroughly. 5% acetone-water solution was used as the negative control. Avemectin B1, which was kindly provided by Dr. Shankui Yuan at the Institute for the Control of Agrochemicals, Chinese Ministry of Agriculture, was used as the positive control with the purity of 97.2%. It was a mixture of avermectin B1a and avermectin B1b in the ratio of 9.5 to 0.5 (w/w). Five replicates were carried out for each treatment, and the experiments were repeated twice. Dead and active nematodes were counted after 24 h. […] The mean percentage of mortality was then calculated. The net percentage of mortality was about 3% by using 5% acetone-water solution as the negative control after 24 h. Nematode recovery was not observed to the dead nematodes. The IC50 value calculation for the antinematodal activity was the same as that for antibacterial activity assay.

Structure (SMILES) | IC50
CC1OC(=O)c2c(O)cccc2C1O (centres unmarked) [4,8-dihydroxy-3-methylbenzopyran-1-one] | 86.9 µg/mL (≈ 447 µM)
COc1cc(O)c2c(=O)oc3cc(O)c(Cl)c(C)c3c2c1 [Palmariol B (1), 2-chloro-3,7-dihydroxy-9-methoxy-1-methyl-6H-dibenzo[b,d]pyran-6-one] | 56.2 µg/mL (≈ 183 µM)
COc1cc(O)c2c(=O)oc3cc(O)cc(C)c3c2c1 [Alternariol 9-methyl ether (3), 3,7-dihydroxy-9-methoxy-1-methyl-6H-dibenzo[b,d]pyran-6-one] | 94 µg/mL (≈ 345 µM)
COC1=CC2(C)OC(=O)c3c(O)cc(OC)cc3C2=C(O)C1=O (centres unmarked) [Botrallin (4), 1,7-dihydroxy-3,9-dimethoxy-4a-methyl-6H-dibenzo[b,d]pyran-2,6 (4aH)-dione] | 84.5 µg/mL (≈ 266 µM)
CC[C@H](C)[C@H]1O[C@]2(C=C[C@@H]1C)C[C@@H]1C[C@@H](C/C=C(\C)[C@@H](O[C@H]3C[C@H](OC)[C@@H](O[C@H]4C[C@H](OC)[C@@H](O)[C@H](C)O4)[C@H](C)O3)[C@@H](C)/C=C/C=C3\CO[C@@H]4[C@H](O)C(C)=C[C@@H](C(=O)O1)[C@]34O)O2 [avermectin, reference compound] | 3.7 µg/mL (≈ 4.24 µM)

— publication PMC6268909 (Molecules, 2012)
